Laboratory results: PubChem BioAssay AID1346428 (National Center for Advancing Translational Sciences (NCATS), 2018)
Out of some 48,000 compounds screened, about 1,200 (2.5%) were called active. Inconclusive results (about 2%) are left out.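 How the source made its calls: active means activation of at least 60% and not above a set upper limit (about 1 call in 100 departs from these limits); inconclusive means activation of 40% to 60%, or above that upper limit; inactive means activation under 40%.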 This is one part of the list.

The compounds below were run against Probable G-protein coupled receptor 32 (Homo sapiens) (UniProt O75388) (assay: qHTS for Agonists of Human Resolvin D1 Receptor DRV1). Settings: CHO-K1 GPR32 beta-arrestin PathHunter luminescence, 90 min; at 76.9 µM; stronger effect = higher value; zero percent set by DMSO-only wells.
Sequence of UniProt O75388 (O75388 whole entry, looked up): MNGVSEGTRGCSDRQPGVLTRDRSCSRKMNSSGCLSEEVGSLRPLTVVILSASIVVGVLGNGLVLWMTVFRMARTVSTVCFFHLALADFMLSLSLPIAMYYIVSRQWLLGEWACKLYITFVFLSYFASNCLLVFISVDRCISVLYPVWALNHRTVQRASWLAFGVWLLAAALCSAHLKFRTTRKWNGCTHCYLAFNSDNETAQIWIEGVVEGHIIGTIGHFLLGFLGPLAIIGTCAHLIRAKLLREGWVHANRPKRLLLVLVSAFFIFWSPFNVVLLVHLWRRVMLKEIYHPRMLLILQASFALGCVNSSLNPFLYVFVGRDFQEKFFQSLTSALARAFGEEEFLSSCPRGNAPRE
Outline: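 PathHunter beta-arrestin recruitment in CHO-K1 cells stably expressing ProLink-tagged GPR32. Cells were exposed to compound for 90 min at 37 C, then chemiluminescence was read after 1 h detection at ambient temperature; DMSO served as basal control.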
Further: 0% is about no effect.

activation, inactive:
COC(=O)Cc1c(C)nc2nc(-c3ccc(C)cc3)[nH]n2c1=O 9.12%
CCOc1ccc(CCNC(=O)c2cnc3sc(N4CCCCC4)nn3c2=O)cc1 10.2%
COc1ccc(N2C(=O)CSC23C(=O)N(CC(N)=O)c2ccccc23)cc1 (stereo unspecified) -14.6%
CCN(Cc1ccccc1)S(=O)(=O)c1ccc(F)c(C(=O)Nc2cc(C(F)(F)F)ccc2Cl)c1 -7.81%
CC(C)c1ccc(N2C(=O)N(Cc3ccccc3Cl)c3ccccc3S2(=O)=O)cc1 -7.02%
COc1ccc(-n2c(=O)c3sc4ccccc4c3n(CC(=O)NC3CCCCC3)c2=O)cc1 5.77%
O=C(Nc1cc(C(F)(F)F)ccc1Cl)c1cnn(-c2ccccc2)c1-n1cccc1 13.8%
COC(=O)c1ccc([C@H]2Nc3ccc(S(=O)(=O)Nc4cccc(C)c4)cc3[C@H]3C=CC[C@H]32)cc1 -23.1%
COc1ccc(-n2c(=O)c3c(c4cc(OC)ccc4n3C)n(CCC(C)C)c2=O)cc1 -14.6%
COC(=O)c1c(-c2ccccc2)c(-c2ccccc2)nn(C)c1=O 1.65%
CCCCOc1ccc(C(=O)N(Cc2ccco2)Cc2ccco2)cc1 -36.9%
COc1ccccc1C1CC(=O)N(c2cccc(C(F)(F)F)c2)C2=C1C(=O)OC2 (stereo unspecified) 5.21%
COCCNC(=O)CCCn1c(SCc2ccccc2Cl)nc2c(sc3ccccc32)c1=O -0.892%
Cc1cc(Br)cc2c(C(=O)OCC(=O)c3ccccc3)cc(-c3ccccc3)nc12 7.55%
Cc1c(-c2nnc(SCC(=O)Nc3ccc(Cl)cc3)o2)nnn1-c1ccc(F)cc1 23.9%
Cc1cccc(N(CC(N)=O)C2SC(=O)N(Cc3cccc(C(=O)O)c3)C2=O)c1 (stereo unspecified) -85.1%
CCC(=O)Nc1nnc2n1CCS2 7.76%
Cc1ccc(/C=N/n2c(-c3ccccc3)csc2=S)cc1 -43.1%
Cc1cc(CN2CCN(c3ccc(F)cc3)CC2)cs1 -11%
O=c1[nH]c(SCc2cccc(Cl)c2)nc2c1CCC2 19.8%
CCN1CCSc2ccc(C(=O)NCc3ccccc3Br)cc21 -34.3%
COc1ccccc1N1CCN(C(=O)c2cnc(N3CCOCC3)c3ccccc23)CC1 -14.3%
COc1ccc(CCNC(=O)CCc2cn(Cc3ccc(C)cc3)c3ccccc23)c(OC)c1OC -27.2%
CCC(C)NC(=O)c1[nH]c2cc(C)ccc2c1Sc1ccc(Cl)cc1 (stereo unspecified) -2.81%
CCOc1cc2[nH]c(=O)n(CCCCC(=O)N3CCN(c4ccccc4)CC3)c(=O)c2cc1OCC -5.21%
COc1ccc(-c2noc(N3CCC(C(=O)N(C)c4cc(Cl)ccc4OC)CC3)n2)cc1 -26.6%
COc1ccc2oc(=O)c(-c3cn4c(n3)sc3cc(F)ccc34)cc2c1 -9.4%
COc1ccc2c(CNCCc3cccs3)c(C(=O)O)n(Cc3ccccc3C)c2c1 -10.5%
O=C(CN1C(=O)COc2ccc(S(=O)(=O)N3CCCCCC3)cc21)N1CCN(c2cccc(C(F)(F)F)c2)CC1 3.58%
Cc1cccc(C)c1OCC(=O)Nc1c(C(=O)c2ccc(Br)cc2)oc2ccccc12 10.7%
CCCOc1ccc(-c2nc(N3CCC(C)CC3)c3ccccc3n2)cc1 15.2%
CCCn1c2ccccc2c2cnn(CC(=O)N(Cc3ccccc3)C(C)C)c(=O)c21 24.9%
CCCCOc1ccc(S(=O)(=O)NCc2csc(-c3ccc(OC)cc3)n2)cc1 -5.31%
COc1ccc(CC(=O)NCC(c2cccs2)S(=O)(=O)c2ccc(Cl)cc2)cc1 (stereo unspecified) 0.402%
CCN(CC)CC1CCCCN1CC(=O)N1c2ccccc2C(=O)Nc2cccnc21 (stereo unspecified) -12.6%
Cc1ccc(S(=O)(=O)NCCc2nnc3ccc(SCc4ccc(F)cc4)nn23)cc1 -18.7%
Cc1cc(F)ccc1NC(=O)c1ccc2nc(Cc3ccccc3)oc2c1 -24.3%
COc1ccc(-n2ccn(CC(=O)NCc3ccc(C)cc3)c(=O)c2=O)cc1OC -1.58%
CCC(C(=O)Nc1cc(OC)ccc1OC)n1c(C)c2cnn(-c3ccccc3)c(=O)c2c1C (stereo unspecified) 21.7%
Cc1c(C(=O)N2CCCC2)oc2c1-c1nn(CC(=O)NC(C)c3ccccc3)cc1CC2 (stereo unspecified) -11.5%
COc1ccccc1Cn1cc(C(=O)c2ccc(F)cc2)c(=O)c2cc3c(cc21)OCO3 2.87%
Cc1ccc(Nc2ncc(C(=O)N3CCN(c4cccc(Cl)c4)CC3)c3ccccc23)cc1Cl -7.69%
Cc1ccc2oc(C(=O)Nc3cccc(-c4nc5ccccc5s4)c3)c(C)c2c1 7.99%
Cc1ccc(C)c(N2CCN(C(=O)c3cc(S(=O)(=O)N4CCC(C)CC4)cn3C)CC2)c1 -22.2%
COc1ccccc1C(=O)c1cn(CC(=O)Nc2ccccc2F)c2nc(C)ccc2c1=O -10.2%
O=C(OC1C[C@H]2CC[C@@H](C1)[N+]21CCCC1)C(O)(c1ccccc1)c1ccccc1 (stereo partly specified) -0.294%
CC(C)c1ccc(NC(=O)CC2Oc3ccccc3NC2=O)cc1 (stereo unspecified) 45.8%
Cc1cc(OCC(=O)N(Cc2ccc(N(C)C)cc2)C2CCS(=O)(=O)C2)cc(C)c1Cl (stereo unspecified) -31.3%
COc1cc(C(=O)NCCc2csc3nc(-c4ccccc4C)nn23)cc(OC)c1OC 10.2%
COc1ccc(NC(=O)Cn2c(=O)n(-c3ccc(OC)cc3)c(=O)c3ccc(C(=O)NCc4ccc(C)cc4)cc32)cc1 28.3%
Cc1ccc(Cl)cc1NC(=O)CN1C(=O)COc2ccc(S(=O)(=O)N3CCCCCC3)cc21 -19%
COc1ccccc1CCNC(=O)CCc1c(C)c2cc3c(C)c(C)oc3cc2oc1=O -18.3%
Cc1ccc(NC(=O)C(=O)NCC(c2ccc3c(c2)OCO3)N2CCN(c3ccccc3)CC2)cc1 (stereo unspecified) 6.41%
CCN(C(=O)C(Cc1ccccc1)NS(=O)(=O)c1cccc2nsnc12)c1ccccc1 (stereo unspecified) -18.3%
O=C(c1cccs1)c1cn(CCOc2ccccc2Cl)c2ccccc12 -13.6%
CCOc1ccc(CCNC(=O)c2ccc(-c3nc(COc4ccc(C)cc4)c(C)o3)cc2)cc1 -3.13%
CC1(C)C(=O)N(CCN2CCC(C(=O)c3ccc(F)cc3)CC2)c2ccccc21 2.35%
COc1ccc(NC(=O)CSc2nc(-c3ccc(F)cc3)c3cccc(C)c3n2)cc1 -3.08%
Cc1ccc(C)c(NC(=O)CCc2c(C)nn(-c3ccc(N4CCCC4)nn3)c2C)c1 1.81%
COCCCn1c(SCC(=O)Nc2ccccc2OC)nc2c(sc3ccccc32)c1=O -28.5%
COc1ccc(CCNC(=O)c2ccc(Cn3c(=O)c4ccccc4n(Cc4ccc(C)cc4)c3=O)cc2)cc1OC -1.19%
COc1ccc(C2C(=O)N(C3CCCCCC3)CC(=O)N2CCc2ccc(OC)c(OC)c2)cc1 (stereo unspecified) -16.8%
Cc1ccc2nc(CN3CCN(C(=O)Nc4ccc(C)c(F)c4)CC3)oc2c1 -17.4%
CCOC(=O)C1CCCN(C(=O)Cn2ncn3c(cc4sc(CC)cc43)c2=O)C1 (stereo unspecified) -11%
COC(=O)c1ccc(OC)c(Cn2c(=O)n(-c3cccc(Cl)c3)c(=O)c3c4c(sc32)CN(C(C)=O)CC4)c1 27.8%
COc1ccc(-c2oc3ncn4nc(COc5ccccc5C)nc4c3c2-c2ccc(OC)cc2)cc1 24.4%
CCCCN(C)CCCNC(=O)c1cc(-c2cccnc2)nc2ccccc12 3.46%
CCC1=Nc2cc(C(=O)NCc3ccc(C)cc3)ccc2Sc2ccc(C)cc21 -25.1%
COc1cc(OC)c(NC(=O)Cc2ccc(-n3c(C)nc4cccnc43)cc2)cc1Cl 24.6%
O=C(Nc1ccc(F)cc1)[C@@H](c1ccccc1)N1Cc2ccccc2C1=O -15%
COc1ccc(/C=C/c2nc(C#N)c(NCCc3ccccc3)o2)cc1OC -16.1%
COc1ccc(NC(=O)c2c(C)oc3ccc(O)c(CN4CCCCCC4)c23)cc1Cl -13%
CC(=O)Nc1ccc(S(=O)(=O)Nc2cc(-c3cn4ccccc4n3)ccc2C)cc1 23.6%
COc1ccc(CCNC(=O)c2cn(C)c3ccc(S(=O)(=O)N(C)C4CCCCC4)cc3c2=O)cc1OC -3.54%
COc1ccc(OC)c(CCNC(=O)c2cnn(-c3ccccc3Cl)c2C2CCN(C(=O)OC(C)(C)C)CC2)c1 -13.6%
Cc1cccc(C(=O)Nc2c(C(=O)NCc3ccc(Cl)cc3)sc3nc(C)cc(C)c23)c1 -21.2%
COc1ccc(Nc2nc3c(S(=O)(=O)c4ccccc4)nnn3c3ccsc23)cc1OC -9.12%
COc1ccccc1NC(=O)C1=C(C)Nc2nnnn2C1c1cc(Br)c(O)c(OC)c1 (stereo unspecified) -37%
COc1ccc(-c2nsc(NC(=O)C(C)Oc3ccc(Cl)c(C)c3)n2)cc1 (stereo unspecified) -2.93%
COc1cccc(-n2c(=O)c3c(C)c(C)sc3n(CC(=O)NCc3ccccc3)c2=O)c1 -6%
COc1ccc(NC(=O)c2cnc(Nc3ccc(C)c(Cl)c3)c3ccccc23)cc1OC -0.333%
